Consider 75 variants from the supplement of paper PMC7125110.

B1: glmS ribozyme (parent)
chain: AUAAAAGCGCCAGAACUACAGAAAUGUAGUUGACGAGGAGGAGGUUUAUCGAAUUUUCGGCGGAUGCCUCCAAA

± gives the standard error. Variants at the background level are over-represented here. Bounds are passed on as bounds.

One data set covers variants of B1. The data set can be described thus: self-cleavage kobs at 2500 uM GlcN6P; higher = faster cleavage; RNA array. To be noted: with glucosamine-6-phosphate. Summed up: (§1)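 Glucosamine-6-phosphate in HEPES/KCl/Mg(OAc)2 buffer, at 40 μM to 10 mM, was flowed over barcoded ribozyme variants transcribed in situ by E. coli RNA polymerase on sequenced MiSeq chips. Tracking was through a hybridised Cy3 probe at 37 °C. kobs, kcat and KM came from exponential decay fits and weighted Michaelis–Menten fits of normalised per-tile medians.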
In the case of A6C G7U A39U A52G U56G, the “self-cleavage kobs at 2500 uM GlcN6P” value is < 1e-05 s⁻¹.
As for C8A C68U, the “self-cleavage kobs at 2500 uM GlcN6P” value was < 1e-05 s⁻¹.
G9C C10A G29C: the “self-cleavage kobs at 2500 uM GlcN6P” value was < 1e-05 s⁻¹.
Same read-out and setting: the same measure for C16A G32U C68U C71A: < 1e-05 s⁻¹; for G62U A64C: < 1e-05 s⁻¹.
Take G7U G66C: the “self-cleavage kobs at 2500 uM GlcN6P” value was < 1e-05 s⁻¹.
Regarding G7A G32A G43A C67U C68U, the “self-cleavage kobs at 2500 uM GlcN6P” value is < 1e-05 s⁻¹.
The same measure, in the same setting: with A6G G13C U55C A64U the figure was < 1e-05 s⁻¹; with A6C A42G U65C, < 1e-05 s⁻¹.
G7A G9U: the “self-cleavage kobs at 2500 uM GlcN6P” value was < 1e-05 s⁻¹.
Still for that read-out and setting: with G9A A14U A39G G62U the figure was < 1e-05 s⁻¹; with A6U U45G A48C A64C, < 1e-05 s⁻¹; with A6U A15C G41C, < 1e-05 s⁻¹.
Still for that read-out and setting: with G44C A64U the figure was < 1e-05 s⁻¹.
On the same count and under the same terms, the same measure for A6C G9A G29A U31A U49A C50A: < 1e-05 s⁻¹; for C8G C16G U56A: < 1e-05 s⁻¹; for G9U A53G: < 1e-05 s⁻¹.
As for A6U A36U G60A C70U, the “self-cleavage kobs at 2500 uM GlcN6P” value was < 1e-05 s⁻¹.
The same measure, in the same setting: the same measure for G9C A12U G37U G40C A64C C68A: < 1e-05 s⁻¹.
As to G7A C50A G63U, the “self-cleavage kobs at 2500 uM GlcN6P” value was < 1e-05 s⁻¹.
The same measure, in the same setting: with C10G G62C A64G C70G the figure was < 1e-05 s⁻¹; with A39C G51U, < 1e-05 s⁻¹; with G7C G35C A48C C58U, < 1e-05 s⁻¹.
On the same count and under the same terms, with G7U A14C U49C A64G C71U the figure was < 1e-05 s⁻¹; with G9C C16U G32A C67G C71U, < 1e-05 s⁻¹.
The same measure, in the same setting: with G9C G41A A64G the figure was < 1e-05 s⁻¹; with C8A G44U U55A, < 1e-05 s⁻¹; with C8U C34A G59C, < 1e-05 s⁻¹.
Consider A6U A33U G38A C70A, for which the “self-cleavage kobs at 2500 uM GlcN6P” value is < 1e-05 s⁻¹.
Same read-out and setting: with G7U G35U U45A A53C the figure was < 1e-05 s⁻¹; with C8A G13A A15G G40U G43U, < 1e-05 s⁻¹.
The same measure, in the same setting: the same measure for C8G U30A G32U A52G: < 1e-05 s⁻¹.
As for C34G A39U G59U, the “self-cleavage kobs at 2500 uM GlcN6P” value is < 1e-05 s⁻¹.
On to G7C C8A U56C U65G, for which the “self-cleavage kobs at 2500 uM GlcN6P” value is < 1e-05 s⁻¹.
The same measure, in the same setting: with G9A G32A C34G C58U the figure was < 1e-05 s⁻¹.
Take A6G G13U G62U C68U: the “self-cleavage kobs at 2500 uM GlcN6P” value is < 1e-05 s⁻¹.
Same read-out and setting: the same measure for G7U G35C G59C: < 1e-05 s⁻¹; for C8A A33C A42G U65G: < 1e-05 s⁻¹.
The same measure, in the same setting: with G13C A64U the figure was < 1e-05 s⁻¹.
Same read-out and setting: with A6U A36U G44U the figure was < 1e-05 s⁻¹.
For C8G A33U G38U A64C, the “self-cleavage kobs at 2500 uM GlcN6P” value was < 1e-05 s⁻¹.
Still for that read-out and setting: with A6U U30A A33U A48G the figure was < 1e-05 s⁻¹.
As for G13A G43A U46G, the “self-cleavage kobs at 2500 uM GlcN6P” value is < 1e-05 s⁻¹.
Still for that read-out and setting: the same measure for C8U A15C A64G: < 1e-05 s⁻¹; for A6C A12U G60A: < 1e-05 s⁻¹.
Same read-out and setting: with G7C U45C G59C the figure was < 1e-05 s⁻¹; with A6U G9A C68U, < 1e-05 s⁻¹; with A6C C8G A14C A48C, < 1e-05 s⁻¹.
Same read-out and setting: with A33C U47C G59C G66A the figure was < 1e-05 s⁻¹; with C11A A39C U49C, < 1e-05 s⁻¹.

The next data set covers variants of B1. The data set can be described thus: self-cleavage kobs at 160 uM GlcN6P; higher = faster cleavage; RNA array. To be noted: with glucosamine-6-phosphate. Summed up:
as §1
For G38U G43C, the “self-cleavage kobs at 160 uM GlcN6P” value is < 1e-05 s⁻¹.
Turning to C16A G32U C68U C71A, the “self-cleavage kobs at 160 uM GlcN6P” value was < 1e-05 s⁻¹.
The same measure, in the same setting: the same measure for A33U G40C: < 1e-05 s⁻¹; for G62U A64C: < 1e-05 s⁻¹.
Same read-out and setting: with A15U C16A U49C C61G the figure was < 1e-05 s⁻¹; with U54A C61G, < 1e-05 s⁻¹; with G35A G37A, < 1e-05 s⁻¹.
On the same count and under the same terms, the same measure for G37U G44A G66U: < 1e-05 s⁻¹; for A33U G51A U55A: < 1e-05 s⁻¹; for C50A U54G: < 1e-05 s⁻¹.
Turning to C11U A33C, the “self-cleavage kobs at 160 uM GlcN6P” value is < 1e-05 s⁻¹.
Regarding C34A G37U A48G, the “self-cleavage kobs at 160 uM GlcN6P” value is < 1e-05 s⁻¹.
Consider G44C A64U, for which the “self-cleavage kobs at 160 uM GlcN6P” value is < 1e-05 s⁻¹.
For the variant G9U A53G, the “self-cleavage kobs at 160 uM GlcN6P” value is < 1e-05 s⁻¹.
On the same count and under the same terms, with C10G G62C A64G C70G the figure was < 1e-05 s⁻¹; with G40U U47A G59U C71G, < 1e-05 s⁻¹; with A39C G51U, < 1e-05 s⁻¹.
For the variant C11G A14U G29C C61G, the “self-cleavage kobs at 160 uM GlcN6P” value was < 1e-05 s⁻¹.
Take G59U C67U C68U U69C: the “self-cleavage kobs at 160 uM GlcN6P” value was 4.87e-05 ± 2.4e-05 s⁻¹.
Take A36U G60A: the “self-cleavage kobs at 160 uM GlcN6P” value is < 1e-05 s⁻¹.
Regarding C8G G59A C71G, the “self-cleavage kobs at 160 uM GlcN6P” value was < 1e-05 s⁻¹.
As to G35C G51C, the “self-cleavage kobs at 160 uM GlcN6P” value was < 1e-05 s⁻¹.
For the variant G37U U46G U56G, the “self-cleavage kobs at 160 uM GlcN6P” value is < 1e-05 s⁻¹.
For U30A A48C, the “self-cleavage kobs at 160 uM GlcN6P” value was < 1e-05 s⁻¹.
The same measure, in the same setting: the same measure for G32U U46C: < 1e-05 s⁻¹; for C34G A39U G59U: < 1e-05 s⁻¹; for U31C G43U U49C C67U: < 1e-05 s⁻¹.
Same read-out and setting: the same measure for G35U C67A C68G C70G: < 1e-05 s⁻¹; for G9A G32A C34G C58U: < 1e-05 s⁻¹.
Still for that read-out and setting: with G35A A48G G51C A64C the figure was < 1e-05 s⁻¹; with G13U G44U U54C, < 1e-05 s⁻¹; with G13C A64U, < 1e-05 s⁻¹.
As to A12G G62A C67U, the “self-cleavage kobs at 160 uM GlcN6P” value is < 1e-05 s⁻¹.
Take G13A G43A U46G: the “self-cleavage kobs at 160 uM GlcN6P” value was < 1e-05 s⁻¹.
U49C U57A C70G: the “self-cleavage kobs at 160 uM GlcN6P” value is < 1e-05 s⁻¹.
On to A33C U47C G59C G66A, for which the “self-cleavage kobs at 160 uM GlcN6P” value was < 1e-05 s⁻¹.
The same measure, in the same setting: the same measure for C11A A39C U49C: < 1e-05 s⁻¹.

In the next data set the parent is B1. The data set can be described thus: self-cleavage kobs at 10000 uM GlcN6P; higher = faster cleavage; RNA array. The note with it: with glucosamine-6-phosphate. Summed up: as §1
On to G38U G43C, for which the “self-cleavage kobs at 10000 uM GlcN6P” value is < 1e-05 s⁻¹.
Same read-out and setting: with U54A C61G the figure was < 1e-05 s⁻¹.
With G7U G66C, the “self-cleavage kobs at 10000 uM GlcN6P” value was < 1e-05 s⁻¹.
On the same count and under the same terms, with G7A C50A G63U the figure was < 1e-05 s⁻¹; with A39C G51U, < 1e-05 s⁻¹.
The same measure, in the same setting: the same measure for C34G A39U G59U: < 1e-05 s⁻¹; for G13C A64U: < 1e-05 s⁻¹.
The same measure, in the same setting: the same measure for G13A G43A U46G: < 1e-05 s⁻¹.
